{"source": "the supplement of paper PMC10338343", "note": "± gives the standard deviation. The list shows a part of the results, in another mix than the full data."}
{"tested_on": "MIWI (PIWIL1) piRISC loaded with L1MC piRNA (30 nt)", "assay": "pre-steady-state target cleavage rate (min^-1); higher = faster piRNA-guided slicing of the target", "settings": "guide: L1MC piRNA 5'p-UAACUAAAUACUAUGCAAGCUGUAGGUCCU; auxiliary factor: 500 nM mouse GTSF1", "procedure": "(§1)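 Cleave-'n-Seq: a library of target RNAs (target site embedded in constant flanks, ACAGCATTCCGCGTTAGTGATATCCG... 5' flank; DNA-blocked outside the site) at 0.1 nM was incubated with 1 nM active mouse MILI or MIWI piRISC (synthetic 5'-monophosphorylated piRNA guide) with or without 500 nM mouse GTSF1 at 33 °C for 1 min to 16 h. Uncleaved targets were sequenced and normalised to non-target controls, and the pooled three trials were fitted to a burst-and-steady-state model to give the pre-steady-state cleavage rate (min^-1; k3 is constrained to at most 1e-4). Sequence is the target site only; target names encode pairing extent (gX:gY) and contiguous / 1-mismatch / 2-mismatch / bulge geometry. Fits with R² ≤ 0 are excluded.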"}
{"sequence": "UCCACCUACAGCAUUGCAUAGUAUUUAGUUA", "pre-steady-state target cleavage rate": "0.935 ± 0.11"}
{"sequence": "AGGACCUACAUCUUGCAUAGUAUUUAGUUA", "pre-steady-state target cleavage rate": "1.39 ± 0.036"}
{"sequence": "AGGACGUACAGCUAGCAUAGUAUUUAGUUA", "pre-steady-state target cleavage rate": "0.986 ± 0.08"}
{"sequence": "UCCUGGAUCAGCUUGCUUAGUAUUUAGUAA", "pre-steady-state target cleavage rate": "0.541 ± 0.037"}
{"sequence": "UCCUGCUACAGCUUGCAUAGUACUUAGUUA", "pre-steady-state target cleavage rate": "0.573 ± 0.034"}
{"sequence": "UCCACCUACAGCAUGCAUAGAAUUUAGUUA", "pre-steady-state target cleavage rate": "0.322 ± 0.051"}
{"sequence": "UCCUGCUACUGCUUGCAUACUAUUUAGUUA", "pre-steady-state target cleavage rate": "0.348 ± 0.02"}
{"sequence": "UCCUGGUACAGCUUGCAUAGUAUUAAGUUA", "pre-steady-state target cleavage rate": "0.426 ± 0.056"}
{"sequence": "UCCUCCUACAGCAAGCAUAGUAUUUAGUUA", "pre-steady-state target cleavage rate": "1.21 ± 0.072"}
{"sequence": "UCGUCCUACAGCUUGCAUAGUUUUUAGUUA", "pre-steady-state target cleavage rate": "0.491 ± 0.017"}
{"sequence": "UCCUGGAUGUGCUUGCGUAGUAUUUAGUUA", "pre-steady-state target cleavage rate": "0.188 ± 0.024"}
{"sequence": "UCCACGAACAGCUUGCAUAGUAUUUAGUAA", "pre-steady-state target cleavage rate": "0.472 ± 0.041"}
{"sequence": "UCCUCCUACAGCUUGCAUUGUAUUUACUUA", "pre-steady-state target cleavage rate": "0.388 ± 0.031"}
{"sequence": "UCCUCCUACUCGUUGCAUAGUAUUUAGAAA", "pre-steady-state target cleavage rate": "0.181 ± 0.03"}
{"sequence": "UCCUGGUACAGCUUGCAAUCUAUUUAGUUA", "pre-steady-state target cleavage rate": "0.0647 ± 0.015"}
{"sequence": "AGGACCUACACGAUGCAUAGUAUUUAGUAA", "pre-steady-state target cleavage rate": "0.668 ± 0.047"}
{"sequence": "UCCUCCUACAGCUUGCAUUCUAUUUAGUUA", "pre-steady-state target cleavage rate": "0.272 ± 0.024"}
{"sequence": "UCCUGGAACACCUUGCAUUGUAUUUAGUUA", "pre-steady-state target cleavage rate": "0.235 ± 0.024"}
{"sequence": "UCCUGGUACACUUGCAUAGUAUUUAGUUA", "pre-steady-state target cleavage rate": "0.414 ± 0.058"}
{"sequence": "UCCUGGAUGAGCAUGGAUAGUAUUUAGUUA", "pre-steady-state target cleavage rate": "0.475 ± 0.042"}
{"tested_on": "MIWI (PIWIL1) piRISC loaded with L1MC piRNA (30 nt)", "assay": "pre-steady-state target cleavage rate (min^-1); MIWI and MILI are mouse PIWI proteins and EfPiwi is from a freshwater sponge; tags in brackets are library labels; higher = faster piRNA-guided slicing of the target", "settings": "guide: L1MC piRNA 5'p-UAACUAAAUACUAUGCAAGCUGUAGGUCCU; auxiliary factor: none (no GTSF1)", "procedure": "as §1"}
{"sequence": "UCCACCUACAGCAUUGCAUAGUAUUUAGUUA", "pre-steady-state target cleavage rate": "0.027 ± 0.0041"}
{"sequence": "AGGACCUACAUCUUGCAUAGUAUUUAGUUA", "pre-steady-state target cleavage rate": "0.0767 ± 0.012"}
{"sequence": "AGGACGUACAGCUAGCAUAGUAUUUAGUUA", "pre-steady-state target cleavage rate": "0.0283 ± 0.0061"}
{"sequence": "UCCUGGAUCAGCUUGCUUAGUAUUUAGUAA", "pre-steady-state target cleavage rate": "0.0113 ± 0.0032"}
{"sequence": "UCCUGCUACAGCUUGCAUAGUACUUAGUUA", "pre-steady-state target cleavage rate": "0.0372 ± 0.0054"}
{"sequence": "UCCACCUACAGCAUGCAUAGAAUUUAGUUA", "pre-steady-state target cleavage rate": "0.00483 ± 0.0017"}
{"sequence": "UCCUGCUACUGCUUGCAUACUAUUUAGUUA", "pre-steady-state target cleavage rate": "0.0269 ± 0.0055"}
{"sequence": "UCCUGGUACAGCUUGCAUAGUAUUAAGUUA", "pre-steady-state target cleavage rate": "0.0151 ± 0.0034"}
{"sequence": "UCCUCCUACAGCAAGCAUAGUAUUUAGUUA", "pre-steady-state target cleavage rate": "0.00412 ± 0.0014"}
{"sequence": "UCGUCCUACAGCUUGCAUAGUUUUUAGUUA", "pre-steady-state target cleavage rate": "0.0311 ± 0.0085"}
{"sequence": "UCCUGGAUGUGCUUGCGUAGUAUUUAGUUA", "pre-steady-state target cleavage rate": "0.0286 ± 0.0069"}
{"sequence": "UCCACGAACAGCUUGCAUAGUAUUUAGUAA", "pre-steady-state target cleavage rate": "0.0317 ± 0.0067"}
{"sequence": "UCCUCCUACAGCUUGCAUUGUAUUUACUUA", "pre-steady-state target cleavage rate": "0.0162 ± 0.0032"}
{"sequence": "UGGACCUACAGCUUGCAUAGUAUUUAGUUU [g2:g29:cont:t1U]", "pre-steady-state target cleavage rate": "0.0974 ± 0.02"}
{"sequence": "UCCUGGUACAGCUUGCAAUCUAUUUAGUUA", "pre-steady-state target cleavage rate": "0.00352 ± 0.0029"}
{"sequence": "AGGACCUACACGAUGCAUAGUAUUUAGUAA", "pre-steady-state target cleavage rate": "0.00365 ± 0.0024"}
{"sequence": "UCCUCCUACAGCUUGCAUUCUAUUUAGUUA", "pre-steady-state target cleavage rate": "0.00656 ± 0.0024"}
{"sequence": "UCCUGGAACACCUUGCAUUGUAUUUAGUUA", "pre-steady-state target cleavage rate": "0.00889 ± 0.0019"}
{"sequence": "UCCUGGUACACUUGCAUAGUAUUUAGUUA", "pre-steady-state target cleavage rate": "0.0163 ± 0.0044"}
{"sequence": "UCCUGGAUGAGCAUGGAUAGUAUUUAGUUA", "pre-steady-state target cleavage rate": "0.0081 ± 0.0031"}
